{
  "source": "paper PMC4336329",
  "about": "(PLoS ONE, 2015)",
  "note": "Hit rate of the full screen: of about 310,000 compounds, about 14,000 (4.5%) showed an effect of 50% or more. Effects have a minus sign here. The list shows a part of the results.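 Further: peak tail current of the secondary pulse compared with the same well before compound.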",
  "data": [
    {"molecular_target": "human ether-à-go-go-related gene (hERG) potassium channel (human, UniProt Q12809)", "sequence (Q12809 whole entry, looked up)": "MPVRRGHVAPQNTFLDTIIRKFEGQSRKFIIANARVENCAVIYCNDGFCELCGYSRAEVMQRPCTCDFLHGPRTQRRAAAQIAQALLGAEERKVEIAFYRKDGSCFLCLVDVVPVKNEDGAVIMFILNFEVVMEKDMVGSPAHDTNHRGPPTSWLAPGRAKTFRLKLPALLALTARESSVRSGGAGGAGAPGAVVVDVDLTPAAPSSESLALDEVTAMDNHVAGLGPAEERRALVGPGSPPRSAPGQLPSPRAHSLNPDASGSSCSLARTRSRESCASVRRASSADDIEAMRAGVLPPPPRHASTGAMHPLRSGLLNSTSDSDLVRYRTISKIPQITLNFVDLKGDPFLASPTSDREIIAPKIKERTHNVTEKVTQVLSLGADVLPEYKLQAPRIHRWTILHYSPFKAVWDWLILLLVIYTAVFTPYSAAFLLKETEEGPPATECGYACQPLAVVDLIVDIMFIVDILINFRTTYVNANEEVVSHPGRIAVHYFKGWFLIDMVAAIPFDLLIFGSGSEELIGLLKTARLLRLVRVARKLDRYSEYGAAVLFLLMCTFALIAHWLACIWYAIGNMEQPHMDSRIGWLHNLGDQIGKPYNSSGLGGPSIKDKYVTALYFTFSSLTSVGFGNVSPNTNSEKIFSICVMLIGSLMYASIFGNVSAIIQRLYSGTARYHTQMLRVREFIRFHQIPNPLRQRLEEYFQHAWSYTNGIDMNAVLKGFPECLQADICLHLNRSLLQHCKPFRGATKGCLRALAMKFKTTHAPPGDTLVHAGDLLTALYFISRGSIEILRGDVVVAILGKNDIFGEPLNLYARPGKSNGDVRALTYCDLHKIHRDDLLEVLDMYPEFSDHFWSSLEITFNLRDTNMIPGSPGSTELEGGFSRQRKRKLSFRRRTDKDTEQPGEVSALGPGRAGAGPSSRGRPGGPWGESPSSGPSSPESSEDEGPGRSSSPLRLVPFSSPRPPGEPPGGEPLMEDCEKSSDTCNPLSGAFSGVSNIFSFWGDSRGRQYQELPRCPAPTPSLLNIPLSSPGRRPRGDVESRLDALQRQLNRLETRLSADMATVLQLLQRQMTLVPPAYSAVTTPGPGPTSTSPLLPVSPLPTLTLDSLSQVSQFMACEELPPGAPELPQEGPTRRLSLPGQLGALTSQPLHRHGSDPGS", "assay": "primary screen, population patch clamp on CHO cells stably expressing hERG", "units": {"hERG current change (%, negative = inhibition) at 10uM": "%"}, "values": [
      {"smiles": "COc1ccc(C2NCCn3cccc32)cc1.O=C(O)/C=C\\C(=O)O", "note": "(stereo not shown)", "hERG current change (%, negative = inhibition) at 10uM": -10.9},
      {"smiles": "Cc1cc(NC(=O)CN2CCc3ccccc3C2)nc2c1c(=O)oc1ccccc12", "hERG current change (%, negative = inhibition) at 10uM": 11},
      {"smiles": "Cc1cc(=O)[nH]c(SCc2nc3ccc([N+](=O)[O-])cc3[nH]2)n1", "hERG current change (%, negative = inhibition) at 10uM": 9.36},
      {"smiles": "CCOc1ccc(N=C2NC(=O)C(CC(=O)O)S2)cc1", "note": "(stereo not shown)", "hERG current change (%, negative = inhibition) at 10uM": -2.78},
      {"smiles": "CN1C(=O)CC(N2CCN(c3ccccn3)CC2)C1=O", "note": "(stereo not shown)", "hERG current change (%, negative = inhibition) at 10uM": 1.46},
      {"smiles": "Cc1noc(C)c1C(=O)NCCc1ccc(Cl)cc1", "hERG current change (%, negative = inhibition) at 10uM": -1.59},
      {"smiles": "CCCCN(C(=O)CSc1nnc(Nc2ccccc2)s1)c1c(N)n(CCC)c(=O)[nH]c1=O", "hERG current change (%, negative = inhibition) at 10uM": 26.9},
      {"smiles": "CCOc1ccccc1NC(=O)c1ccccc1NC(=O)c1ccco1", "hERG current change (%, negative = inhibition) at 10uM": -2.4},
      {"smiles": "CCCc1c(CC)c(=N)c2ccccc2n1C.I", "hERG current change (%, negative = inhibition) at 10uM": -6.91},
      {"smiles": "O=C(c1ccco1)N1CCN(c2ccc([N+](=O)[O-])cc2F)CC1", "hERG current change (%, negative = inhibition) at 10uM": -64.9},
      {"smiles": "CCSc1nnc(NC(=O)c2ccc(S(=O)(=O)N(C)C)cc2)s1", "hERG current change (%, negative = inhibition) at 10uM": 17},
      {"smiles": "CC(O)CNc1nc2c(c(=O)n(Cc3ccccc3)c(=O)n2C)n1C", "note": "(stereo not shown)", "hERG current change (%, negative = inhibition) at 10uM": 12.6},
      {"smiles": "O=C(Nc1nnc(S(=O)(=O)N2CCCC2)s1)c1ccccc1Cl", "hERG current change (%, negative = inhibition) at 10uM": -10.7},
      {"smiles": "COc1ccc(N2CCN(C(=S)Nc3ccc(S(N)(=O)=O)cc3)CC2)cc1", "hERG current change (%, negative = inhibition) at 10uM": 19.4},
      {"smiles": "O=c1nc(N2CCOCC2)ccn1-c1nc(-c2ccccc2)oc1-c1ccccc1", "hERG current change (%, negative = inhibition) at 10uM": -9.71},
      {"smiles": "Cl.O=C(NCCCCNC(=O)c1cccnc1)c1cccnc1", "hERG current change (%, negative = inhibition) at 10uM": -3.2},
      {"smiles": "Cc1ccc(NC(=O)CSc2nccn2C)cc1F", "hERG current change (%, negative = inhibition) at 10uM": 3.62},
      {"smiles": "Cc1ccc(Sc2ccc(NC(=O)CCN3C(=O)NC4(CCCC4)C3=O)cc2)c(C)c1", "hERG current change (%, negative = inhibition) at 10uM": -16},
      {"smiles": "Cc1c(Cl)cccc1NC(=O)CSc1ncnc2c1cnn2CCO", "hERG current change (%, negative = inhibition) at 10uM": 10.9},
      {"smiles": "O=C(NC(Cc1ccccc1)C(=O)O)/C(=C\\c1ccc([N+](=O)[O-])cc1)NC(=O)c1ccco1", "note": "(stereo not shown)", "hERG current change (%, negative = inhibition) at 10uM": 26.4},
      {"smiles": "O=C(CN1CCCCC1)N1CCc2ccccc21", "hERG current change (%, negative = inhibition) at 10uM": -6},
      {"smiles": "O=C(N1CCOCC1)n1nnc2ccccc21", "hERG current change (%, negative = inhibition) at 10uM": 15.8},
      {"smiles": "CC(C)N(Cc1nccn1C)C(=O)CC1C(=O)NCCN1Cc1ccc(F)c(F)c1", "note": "(stereo not shown)", "hERG current change (%, negative = inhibition) at 10uM": 7.21},
      {"smiles": "Cc1ccc(-c2nc3ccccc3o2)cc1NC(=S)NC(=O)c1cccs1", "hERG current change (%, negative = inhibition) at 10uM": 13.5},
      {"smiles": "CCC1Oc2ccccc2N(CC(=O)Nc2ccc3c(c2)OCCO3)C1=O", "note": "(stereo not shown)", "hERG current change (%, negative = inhibition) at 10uM": 5.59},
      {"smiles": "O=C(Cc1ccccc1)NCCc1ccc(Cl)cc1Cl", "hERG current change (%, negative = inhibition) at 10uM": -19.6},
      {"smiles": "CCCC[C@@H]1C[C@H]1[C@@H](NC(=O)c1ccco1)c1ccccc1C(F)(F)F", "hERG current change (%, negative = inhibition) at 10uM": 6.62},
      {"smiles": "CC(=O)N1c2ccc(S(=O)(=O)N3CCOCC3)cc2CC1C", "note": "(stereo not shown)", "hERG current change (%, negative = inhibition) at 10uM": 0.69},
      {"smiles": "COc1ccc(CNC(=O)C2CCCN(S(=O)(=O)c3ccc4c(c3)CCCN4C(C)=O)C2)cc1", "note": "(stereo not shown)", "hERG current change (%, negative = inhibition) at 10uM": 4.76},
      {"smiles": "O=C(O)c1ccccc1-c1ccccc1C(=O)Nc1ccccc1", "hERG current change (%, negative = inhibition) at 10uM": 8.38},
      {"smiles": "COc1ccccc1S(=O)(=O)Cc1ccc(C(=O)NCC(OC)OC)o1", "hERG current change (%, negative = inhibition) at 10uM": 15.9},
      {"smiles": "COc1ccc(NC(=O)Nc2cccc3cccnc23)cc1", "hERG current change (%, negative = inhibition) at 10uM": -17.4},
      {"smiles": "CCN1CCN(C(=O)Nc2ccc(OC)cc2OC)CC1", "hERG current change (%, negative = inhibition) at 10uM": 9.38},
      {"smiles": "COc1ccc([N+](=O)[O-])cc1Nc1c2ccccc2nc2ccccc12", "hERG current change (%, negative = inhibition) at 10uM": 9.54},
      {"smiles": "COc1ccc(CC(=O)Nc2ccc3c(C(F)(F)F)cc(=O)oc3c2)cc1OC", "hERG current change (%, negative = inhibition) at 10uM": -18.4},
      {"smiles": "COc1cc(C(=O)Nc2ccc3nc4n(c(=O)c3c2)CCCCC4)cc(OC)c1OC", "hERG current change (%, negative = inhibition) at 10uM": -67.7},
      {"smiles": "NC(=O)c1nsc(C(=O)N(Cc2ccc(F)cc2)C(C(=O)NC2CCCC2)c2ccco2)c1N", "note": "(stereo not shown)", "hERG current change (%, negative = inhibition) at 10uM": -10.5},
      {"smiles": "Cc1nc(NS(=O)(=O)c2ccccc2)sc1C(=O)NNS(=O)(=O)c1ccccc1", "hERG current change (%, negative = inhibition) at 10uM": 13.9},
      {"smiles": "O=C(CN1CCN(C(=O)c2ccco2)CC1)Nc1ccc2c(c1)OCO2", "hERG current change (%, negative = inhibition) at 10uM": -26.6},
      {"smiles": "Cc1ccc2c(C(=O)CN3CCC(C(N)=O)CC3)c(C)[nH]c2c1", "hERG current change (%, negative = inhibition) at 10uM": 5.21},
      {"smiles": "COC(=O)C1NN=C(C(=O)c2ccc(Cl)cc2)C1c1ccc(OC)cc1", "note": "(stereo not shown)", "hERG current change (%, negative = inhibition) at 10uM": -26.3},
      {"smiles": "COC(=O)Cc1cnc(NC(=O)CSc2nc(C(C)C)cc(=O)[nH]2)s1", "hERG current change (%, negative = inhibition) at 10uM": 20.8},
      {"smiles": "O=C(c1ccccc1F)N1CCN=C1SCc1cccnc1", "hERG current change (%, negative = inhibition) at 10uM": -1.53},
      {"smiles": "COc1ccc([C@@H]2CC=C(C(=O)O)[C@H](c3ccc(Cl)cc3)N2S(=O)(=O)c2ccc(Cl)cc2)cc1", "hERG current change (%, negative = inhibition) at 10uM": 1.6},
      {"smiles": "Cn1c2ccc(Cl)cc2c2nc3ccccc3nc21", "hERG current change (%, negative = inhibition) at 10uM": 13.9},
      {"smiles": "CCOc1ccc(-c2nnc3ccc(SCc4ccc(C(=O)OC)o4)nn23)cc1", "hERG current change (%, negative = inhibition) at 10uM": -24.4},
      {"smiles": "COc1cc(/C=C/C(=O)O)cc(S(=O)(=O)NCCCC(=O)O)c1OC", "hERG current change (%, negative = inhibition) at 10uM": 21.9},
      {"smiles": "C/C(Cc1ccccc1)=N\\NC(=O)CNC(=O)/C=C\\c1ccccc1", "hERG current change (%, negative = inhibition) at 10uM": 14.2},
      {"smiles": "Cc1cc(OC(C)C(=O)NC2CCN(Cc3ccccc3)CC2)c2c(C)cc(=O)oc2c1", "note": "(stereo not shown)", "hERG current change (%, negative = inhibition) at 10uM": -15.2},
      {"smiles": "O=C(CSc1cn[nH]n1)Nc1ccc(Cl)cc1Cl", "hERG current change (%, negative = inhibition) at 10uM": 6.7},
      {"smiles": "O=C(Nc1ccc(NC(=O)c2ccccc2)nc1)c1ccncc1", "hERG current change (%, negative = inhibition) at 10uM": -2.33},
      {"smiles": "Cc1cc(NC(=O)c2ccccc2Cl)ccc1NC(=O)c1ccccc1Cl", "hERG current change (%, negative = inhibition) at 10uM": 9.49},
      {"smiles": "Cc1ccc(NC(=O)CN(C)C(=O)CSc2nc3ccccc3c(=O)n2Cc2ccco2)cc1", "hERG current change (%, negative = inhibition) at 10uM": -71.1},
      {"smiles": "Cc1cc(C)nc(N2CCN(c3ncnc4c3cnn4Cc3ccc(Cl)cc3Cl)CC2)n1", "hERG current change (%, negative = inhibition) at 10uM": 21.9},
      {"smiles": "COc1cccc(CNS(=O)(=O)c2c(C)nc3sccn3c2=O)c1", "hERG current change (%, negative = inhibition) at 10uM": -13.6}
    ]}
  ]
}
